# Measurements taken from PubChem BioAssay AID1508623 (National Center for Advancing Translational Sciences (NCATS), 2021).
# Out of some 48,000 compounds screened, about 450 (0.94%) were called active. Inconclusive means that the source gave no clear call. Such entries were picked first, then a sample of the others. The call rests on the fitted dose curve; in most records, active means well fitted inhibition curve with a large enough effect; inconclusive means small, poorly fitted or top-dose-only effect; inactive means no such curve, though single readings can be large or run the other way. Potencies beside an inconclusive call are fits to weak or partial responses and may not hold up.
# Test: Primary qHTS for Identification of Small Molecule Inhibitors of Huntingtin Promoter Activity; further: nearly all actives have a fitted effect of over 50% in size
# Details: HEK293 HTT promoter firefly luciferase reporter (activity 0% = vehicle and -100% = no light), 24 h; series mostly up to 57.5 µM
# How it was run: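 Quantitative HTS used concentration series of up to 57.5 uM final on HEK293 luciferase reporter cells, 24 h at 37 degrees C. Readout was Dual-Glo firefly luminescence.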
# Potency means the concentration at half of the fitted maximal effect; tags describe the fitted curve by direction and shape.
row,SMILES,Potency
1,Cc1ccc(Cl)cc1N1CCN(C(=O)COc2cc(=O)n(C)c3ccccc23)CC1,"inconclusive: 31.6 µM [inhibitor, single point]"
2,CC(=O)N1CCc2c(sc3c2c(=O)n(Cc2ccccc2)c(=O)n3Cc2ccccc2Cl)C1,"inconclusive: 25.1 µM [inhibitor, partial curve]"
3,CCCCN(CC)C(=O)CSc1nc2ccccc2c(=O)n1Cc1ccco1,"inconclusive: 39.8 µM [inhibitor, single point]"
4,COc1ccc(NC(=O)C2CCN(c3ccc(Sc4ccc(C)cc4)nn3)CC2)cc1,inactive
5,CCOC(=O)c1ccccc1NC(=O)CSc1cn(CC(=O)N2CCCCCC2)c2ccccc12,"inconclusive: 39.8 µM [inhibitor, single point]"
6,CCOC(=O)NNc1ccc(N(CC)CC(C)O)nn1 (stereo not drawn),inactive
7,CCOC(=O)c1cccc(NC(=O)C2CCN(S(=O)(=O)c3c(C)noc3/C=C/c3ccc(C)cc3)CC2)c1,"inconclusive: 14.1 µM [inhibitor, partial curve, poor fit]"
8,COc1cc2nc(-c3cc(F)ccc3O)nc(N[C@@H]3CNC[C@@H]3C(C)(C)O)c2cc1OC,"inconclusive: 15.3 µM [inhibitor, partial curve, poor fit]"
9,COc1cc(NC(=O)c2nc(-c3ccc(Cl)cc3)n3c2CCCCC3)cc(OC)c1OC,"inconclusive: 20 µM [inhibitor, partial curve, poor fit]"
10,O=C(Cc1ccccc1)Nc1sc2c(c1C(=O)Nc1ccccc1Cl)CCCC2,inactive
11,Cc1ccccc1C(=O)Nc1cccc(C(=O)OCc2cc(=O)n3c(C)csc3n2)c1,"inconclusive: 39.8 µM [inhibitor, partial curve, poor fit]"
12,COc1ccc(CNC(=O)c2ccc(NC(=O)N3CCSc4ncccc43)cc2)c(OC)c1,"inconclusive: 11.2 µM [inhibitor, partial curve, poor fit]"
13,Cc1ccc(C)c(Nc2nn3c(=O)c4ccc(C(=O)N(C)Cc5ccccc5)cc4nc3s2)c1,"inconclusive: 22.4 µM [inhibitor, single point]"
14,Cc1ccc(CN2CCc3nc(N4CCN(c5ccccc5F)CC4)ncc3C2)s1,"inconclusive: 10 µM [inhibitor, partial curve]"
15,Cc1ccc(NC(=O)C2CCCN2S(=O)(=O)c2cccc3nsnc23)c(Br)c1 (stereo not drawn),"inconclusive: 22.4 µM [inhibitor, partial curve, poor fit]"
16,C#CCC(Cc1cnc2nc(N)nc(N)c2n1)c1ccc(C(=O)N[C@@H](CCC(=O)O)C(=O)O)cc1 (stereo partly drawn),"inconclusive: 0.611 µM [inhibitor, full curve]"
17,CCOC(=O)[C@@](C)(N)Cc1ccc(O)c(O)c1,"inconclusive: 39.8 µM [inhibitor, single point]"
18,COC(=O)c1sc(S(=O)(=O)N2CCN(c3ccc(OC)cc3)CC2)c(C(=O)OC)c1C,"inconclusive: 39.8 µM [inhibitor, single point]"
19,COc1ccc(OC)c(NC(=O)CSc2nccn2-c2cc(C)cc(C)c2)c1,"inconclusive: 39.8 µM [inhibitor, single point]"
20,Cc1ccc(-c2nc3ccccc3[nH]2)cc1NC(=O)COc1ccc(Cl)cc1Cl,"inconclusive: 11.2 µM [inhibitor, partial curve]"

row,SMILES,Potency
1,O=C(c1ccccc1)c1ccc2n1CCC2C(=O)O (stereo not drawn),"inconclusive: 21.7 µM [inhibitor, partial curve]"
2,Cc1ccc(CN2C(=O)CC(c3ccc(Cl)cc3)c3c(C)nn(-c4nc(C)cc(C)n4)c32)cc1 (stereo not drawn),"inconclusive: 14.1 µM [inhibitor, partial curve]"
3,COC(=O)c1ccc(NC(=O)CSc2nccn2Cc2ccc(Cl)cc2)cc1,"inconclusive: 39.8 µM [inhibitor, single point]"
4,COc1cccc(-c2nc(S(=O)(=O)c3ccc(C)cc3)c(NCc3ccccc3)o2)c1,"inconclusive: 22.4 µM [inhibitor, partial curve, poor fit]"
5,CCOc1ccccc1N(C)C(=O)c1cc(S(=O)(=O)NCc2ccc(C)cc2)ccc1F,"inconclusive: 39.8 µM [inhibitor, single point]"
6,CCc1nn2c(=O)cc(COC(=O)c3cccc(NC(=O)COc4ccccc4F)c3)nc2s1,"inconclusive: 39.8 µM [inhibitor, single point]"
7,CCC(=O)C1=C(c2cccc([N+](=O)[O-])c2)N(C(=O)CC)n2c(nnc2C2CCCCC2)S1,"inconclusive: 39.8 µM [inhibitor, single point]"
8,OCc1ccccc1O,inactive
9,C=C1C(=O)OC(CCCCCCCC)C1C(=O)O (stereo not drawn),inactive
10,Cc1ccccc1-c1nc(CS(=O)(=O)CC(=O)Nc2c(C)cccc2C)c(C)o1,"inconclusive: 39.8 µM [inhibitor, partial curve, poor fit]"
11,CCCCN(CC)C(=O)CSc1nc2n[nH]c(C)c2c(=N)n1-c1cccc(Cl)c1,"inconclusive: 25.1 µM [inhibitor, partial curve, poor fit]"
12,Cc1ccc(NC(=O)Cc2ccc(-n3c(C)nc4cccnc43)cc2)c(Cl)c1,active: 8.91 µM
13,COc1ccccc1C(=O)NCCn1cc(SCC(=O)Nc2ccccc2F)c2ccccc21,"inconclusive: 39.8 µM [inhibitor, single point]"
14,COc1ccc(Cn2c(C(=O)O)c(CNCc3ccccc3F)c3ccc(OC)cc32)cc1,"inconclusive: 25.1 µM [inhibitor, single point]"
15,CCCSc1ncc(Cl)c(C(=O)Nc2ccc(S(=O)(=O)N(C)c3ccccc3)cc2)n1,"inconclusive: 31.6 µM [inhibitor, partial curve, poor fit]"
16,O=C(Nc1nnc(S(=O)(=O)N2CCCc3ccccc32)s1)c1cccc(Cl)c1,"inconclusive: 17.8 µM [inhibitor, partial curve, poor fit]"
17,CC(C)OC(=O)[C@H](C)N[P@](=O)(OC[C@H]1O[C@@H](n2ccc(=O)[nH]c2=O)[C@](C)(F)[C@H]1O)Oc1ccccc1,inactive
18,CCn1nnc2c(N3CCOCC3)nc(-c3ccc(NC(=O)Nc4ccc(C(=O)N5CCN(C)CC5)cc4)cc3)nc21,"inconclusive: 0.306 µM [inhibitor, full curve]"
19,COc1ccc(S(=O)(=O)N2CCC(C(=O)Nc3ccc(Oc4ccccc4)cc3)CC2)cc1,"inconclusive: 7.08 µM [inhibitor, single point]"
20,Oc1ccc(Cl)cc1Cc1cc(Cl)ccc1O,"inconclusive: 39.8 µM [inhibitor, single point]"

row,SMILES,Potency
1,Cc1ccc(C)c(NC(=O)N2CCN(C(=O)c3nsc4ccccc34)CC2)c1,"inconclusive: 17.8 µM [inhibitor, single point]"
2,COc1cc(Cl)c(C)cc1NC(=O)C1CCN(c2nc3ccccc3n3cccc23)CC1,"inconclusive: 28.2 µM [inhibitor, single point]"
3,CCOc1ccccc1N(CC)C(=O)Cn1ncc2c([nH]c3ccccc32)c1=O,"inconclusive: 22.4 µM [inhibitor, single point]"
4,CC(=O)c1ccc(NC(=O)c2nc3ccccc3nc2N2CCCCC2)cc1,inactive
5,CC1=C(c2ccc(C)c(C)c2)S(=O)(=O)NC1=NCc1ccccc1Cl,"inconclusive: 39.8 µM [inhibitor, single point]"
6,CCOC(=O)c1c(C)[nH]c(C)c1S(=O)(=O)N1CCC(C(=O)Nc2cc(Cl)ccc2OC)CC1,"inconclusive: 25.1 µM [inhibitor, single point]"
7,CCOC(=O)c1sc2ncn(CC(=O)Nc3ccc(OCC)cc3)c(=O)c2c1C,inactive
8,Cc1ccc(S(=O)(=O)N(CC(=O)Nc2ccc3c(c2)OCO3)c2cc(Cl)cc(Cl)c2)cc1,"inconclusive: 35.5 µM [inhibitor, single point]"
9,COc1ccc(CNC(=O)Cn2c(=O)nc(-c3ccccc3)c3ccccc32)cc1OC,"inconclusive: 39.8 µM [inhibitor, single point]"
10,Cc1nc2c(-c3ccc(F)cc3)c(C)nn2c(C)c1CCC(=O)N1CCN(c2ccccc2)CC1,inactive
11,COc1cc(CCC(=O)NCc2ccc3c(c2)CCN3C(=O)c2ccccc2)cc(OC)c1OC,"inconclusive: 31.6 µM [inhibitor, partial curve, poor fit]"
12,COc1ccc(-c2nnc(SCC(=O)NCCc3ccc(OC)c(OC)c3)nc2-c2ccc(OC)cc2)cc1,"inconclusive: 31.6 µM [inhibitor, partial curve, poor fit]"
13,Cc1nc2cccnc2n1-c1cccc(C(=O)N2CCN(c3cccc(Cl)c3)CC2)c1,"inconclusive: 11.2 µM [inhibitor, partial curve]"
14,Cc1ccc(C)c(N2CCN(S(=O)(=O)c3cc(-c4cc(C)no4)ccc3C)CC2)c1,"inconclusive: 39.8 µM [inhibitor, partial curve, poor fit]"
15,CC(=O)N1CCN(c2ccc(OCc3nn(C)c(C)c3-c3cccc4c(CCCOc5cc(C)c(Cl)c(C)c5)c(C(=O)O)n(Cc5cccnc5)c34)cc2)CC1,inactive
16,O=C(CN1C(=O)C(c2ccc(F)cc2)=NC12CCCCCC2)Nc1ccccc1Cl,"inconclusive: 22.4 µM [inhibitor, single point]"
17,CC1=Nc2cc(C(=O)NCc3ccccc3Cl)ccc2Sc2c(C)ccc(C)c21,"inconclusive: 10 µM [inhibitor, partial curve, poor fit]"
18,COc1ccc(-c2ccc3c(N)c(C(=O)Nc4ccc(C(F)(F)F)cc4)sc3n2)cc1OC,"inconclusive: 10 µM [inhibitor, partial curve]"
